Results on 83 variants are retold here after the RNAGym collection of RNA variant scans (doi:10.7554/elife.90254).

Read counts are not given, so values of variants with three or more changes are uncertain.

To fix the notation:
B1: LINE1-full (parent)
chain: UACGUAGGUGGUUUUCCCCUGAUAGUGCUAAGGGGGCCUGGAAGUUUGGACUGGGCAGAGCUCAACACAGCGUGGCAAAGUGGCUGUGGCUAGACUGCCUCUCUGGAUUCCUCGUCACUCAGCAGGGCAUCUCUGAGAGAAAUGCC

In this data set the parent is B1. Kind of data set: self-cleavage, relative activity (ratio to wild type); higher = more cleavage; in vitro, sequencing; the parent is a self-cleaving ribozyme.
On to U15C C51U A65G, for which the self-cleavage is 0.12.

U15C A129G A141G: the self-cleavage was 1.79.

With U15A A50U U115C, the self-cleavage stood at 1.64.

For the variant U15C A22G A67G A69G, the self-cleavage was 0.34.

Regarding U15C A121G A140G, the self-cleavage was determined as 1.31.

Take U15C U46C A136G A138U: the self-cleavage was found to be 1.61.

Consider U15C A69G A92G, for which the self-cleavage is 0.

In the case of U15A G58A U87A A142G, the self-cleavage stood at 0.04.

Regarding U15A C84U U91C A142G, the self-cleavage was 0.19.

On to U14C U91A U119G, for which the self-cleavage stood at 0.62.

As for U15C A77U G114C U132C, the self-cleavage was 1.66.

Regarding U15A U62A A79C U132C, the self-cleavage is 0.19.

On to U15A G36C A117G A129G, for which the self-cleavage is 1.91.

Regarding U15C U62C A107G A117G, the self-cleavage was 0.

In the case of U15C U52C A57G A142G, the self-cleavage worked out at 0.

With U14C U100C G105U A136G A138G, the self-cleavage stood at 2.43.

With U15C C37U A77U U96A, the self-cleavage was 0.03.

For U15A U134C A140U, the self-cleavage was 0.91.

For U15C U47G U87C C95U, the self-cleavage was found to be 0.

On to U15A U39A A43G U45G A69U, for which the self-cleavage turned out to be 0.24.

As to U15C G40U U46A, the self-cleavage is 0.95.

Consider U14C U96C A142G, for which the self-cleavage amounted to 0.15.

Regarding U15C U39C A79G U96A U108A, the self-cleavage was found to be 0.2.

Consider U15C U96A A141U, for which the self-cleavage turned out to be 0.07.

As for U15C U45C A59G A78G U132C, the self-cleavage amounted to 0.

Consider U15C U26C C128U, for which the self-cleavage was 1.75.

Regarding U15A U23C U26A U100C, the self-cleavage stood at 1.56.

In the case of U15C A78G A79G U109C, the self-cleavage turned out to be 0.

Take U15C A57C A79G U85A U119A: the self-cleavage amounted to 0.19.

For the variant U15A A59G U62C G105A U132A A142C, the self-cleavage was 0.09.

Consider U14G A22G A77U, for which the self-cleavage amounted to 1.11.

For the variant U15C U46C U73C G75A U96C, the self-cleavage was determined as 0.23.

U15A A79U U115C A129G: the self-cleavage came to 2.76.

For the variant U15C U104C A141G, the self-cleavage is 1.68.

For the variant U15C A31G U108A U132A, the self-cleavage came out at 1.39.

As for U14C U102C A117G, the self-cleavage came to 1.58.

On to U15C U20A U26A G32U U46C, for which the self-cleavage stood at 0.83.

U15C U23C A57G: the self-cleavage came to 1.63.

Take U15C U20C U130A: the self-cleavage worked out at 1.44.

U15C A59G U102A U108C: the self-cleavage was 0.

Take U15A C18U U73A U81A: the self-cleavage was found to be 1.18.

Take U15C U20C A30G A78G: the self-cleavage was 0.81.

Regarding U15A U47A A79U G125A, the self-cleavage was 1.49.

As for U15C U29C U45C G72A, the self-cleavage stood at 1.01.

As for U15C U52C U143A, the self-cleavage was determined as 1.5.

In the case of U15C G49A G54A U108C U130C, the self-cleavage came out at 0.45.

In the case of U15A U23C A43G U115A, the self-cleavage was 0.57.

Take U15C G97A A138U: the self-cleavage is 0.08.

As for U15A A30U U96C, the self-cleavage worked out at 0.3.

As for U15A A43G A138G, the self-cleavage was determined as 1.71.

For U14G U62C A69U U87A, the self-cleavage was 0.15.

Regarding U15C A79G U112C, the self-cleavage worked out at 1.82.

Take U15C A43G U87A: the self-cleavage is 0.3.

As for U15C A42U A67U, the self-cleavage came out at 0.08.

As for U15C G34A U47A U85C A140G, the self-cleavage was 0.09.

Consider U15C U20C A57U U102C, for which the self-cleavage came to 0.09.

With U15C G21U A79G U134C, the self-cleavage turned out to be 1.51.

Turning to U15A U81C C113U U115C, the self-cleavage is 0.33.

As to U15C U73C A77U, the self-cleavage is 0.47.

As for U15C U102A U134C, the self-cleavage was determined as 0.66.

On to U15C U39C A117U A140G, for which the self-cleavage was 1.84.

For the variant U15C A78G G139A, the self-cleavage turned out to be 1.25.

On to U14C U112C U132C A138G, for which the self-cleavage is 1.53.

Regarding U15A A64G A92G A124U, the self-cleavage came to 0.

For the variant U15C C51A U132C, the self-cleavage worked out at 1.78.

Consider U14G U20A U46A U143A, for which the self-cleavage is 0.48.

Consider U15C C18U C19U A22G A50U, for which the self-cleavage was determined as 1.41.

With U15C U23A A94G U115A A141G, the self-cleavage came to 0.

Turning to U14G U20C U26G U85A U100C, the self-cleavage was 0.34.

Consider U15A A57G U85A, for which the self-cleavage is 0.06.

For the variant U15C A117G C128U, the self-cleavage turned out to be 1.53.

In the case of U15C U46C A64G A69C, the self-cleavage is 0.

In the case of U14C U108C A136U, the self-cleavage was 0.

U15C U81C G127A: the self-cleavage worked out at 0.99.

For U15C A42G G72A, the self-cleavage worked out at 1.07.

Consider U15C A43G U62C, for which the self-cleavage came out at 0.2.

As to U15A U46C U52A, the self-cleavage is 0.81.

In the case of U15C U20C U29G A65G A69U, the self-cleavage turned out to be 0.84.

For the variant U15C U26C A64U U102C, the self-cleavage was 0.83.

As for U15C C68A U73C U130C, the self-cleavage is 0.1.

As to U15C U26A A141G, the self-cleavage came to 1.17.

For U15C A59G A124G G126A, the self-cleavage amounted to 0.27.

U15C G70C U115C: the self-cleavage worked out at 0.31.
